Measurements reported in paper PMC4336329 (PLoS ONE, 2015).
Out of some 310,000 compounds screened, about 2,200 (0.71%) showed an effect of 50% or more. Effects have a minus sign here. Some of the results follow.

biological target: human ether-à-go-go-related gene (hERG) potassium channel (human, UniProt Q12809); test: primary screen, population patch clamp on CHO cells stably expressing hERG
Sequence (Q12809 whole entry, looked up): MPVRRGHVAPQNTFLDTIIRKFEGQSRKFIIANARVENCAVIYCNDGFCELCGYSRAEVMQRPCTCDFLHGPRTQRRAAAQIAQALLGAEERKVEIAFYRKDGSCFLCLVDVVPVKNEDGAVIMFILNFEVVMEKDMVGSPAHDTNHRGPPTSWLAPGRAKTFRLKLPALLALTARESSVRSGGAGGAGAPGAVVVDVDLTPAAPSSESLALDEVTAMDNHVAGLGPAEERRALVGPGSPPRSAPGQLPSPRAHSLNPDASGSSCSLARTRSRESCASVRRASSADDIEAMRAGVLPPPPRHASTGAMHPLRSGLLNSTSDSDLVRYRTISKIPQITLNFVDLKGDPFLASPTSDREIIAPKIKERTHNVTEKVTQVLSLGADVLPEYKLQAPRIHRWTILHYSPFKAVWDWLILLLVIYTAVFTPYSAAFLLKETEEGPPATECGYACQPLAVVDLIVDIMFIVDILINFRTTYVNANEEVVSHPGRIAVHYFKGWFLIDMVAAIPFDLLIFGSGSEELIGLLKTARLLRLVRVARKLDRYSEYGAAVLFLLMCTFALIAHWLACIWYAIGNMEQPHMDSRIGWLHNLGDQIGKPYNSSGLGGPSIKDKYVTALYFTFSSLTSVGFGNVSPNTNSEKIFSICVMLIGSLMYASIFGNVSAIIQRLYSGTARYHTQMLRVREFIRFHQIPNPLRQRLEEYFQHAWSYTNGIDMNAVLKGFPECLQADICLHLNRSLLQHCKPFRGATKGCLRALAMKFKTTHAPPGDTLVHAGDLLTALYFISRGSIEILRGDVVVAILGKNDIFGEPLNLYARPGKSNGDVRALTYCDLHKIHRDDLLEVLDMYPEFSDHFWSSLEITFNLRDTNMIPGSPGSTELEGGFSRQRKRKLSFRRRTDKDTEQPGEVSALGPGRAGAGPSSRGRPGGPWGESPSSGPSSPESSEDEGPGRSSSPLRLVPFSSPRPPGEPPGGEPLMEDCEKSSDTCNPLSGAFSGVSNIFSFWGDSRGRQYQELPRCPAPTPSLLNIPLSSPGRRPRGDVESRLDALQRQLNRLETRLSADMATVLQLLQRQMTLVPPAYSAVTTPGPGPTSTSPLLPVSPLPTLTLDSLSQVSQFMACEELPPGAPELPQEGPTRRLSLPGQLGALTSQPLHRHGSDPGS

Compared with CCOC(C(=O)OCCC[N+](C)(CC)CC)(c1ccccc1)c1ccccc1.COS(=O)(=O)[O-], CCOc1ccc(CC(=O)Nc2sc(Cc3ccccc3)c(C)c2C(N)=O)cc1OCC is lower in “hERG current change (%, negative = inhibition) at 1uM” value: 15.8% for the first, -12.2% for the second.

Going from Nc1cc(N)nc(SCC(=O)Nc2ccc(Br)cc2Cl)n1 to COc1ccc(Cc2nnc(SCC(=O)c3ccc4c(c3)OCO4)o2)cc1, the “hERG current change (%, negative = inhibition) at 1uM” value falls from 11.4% to 5.92%.

First: COC(=O)[C@H](Cc1ccccc1)NC(=O)NCC1CCCO1 (stereo partly shown)
Second: COC(=O)[C@H]1CN(C(=O)c2ccccc2)C(=O)N1
The “hERG current change (%, negative = inhibition) at 1uM” value of the first is higher: 12.6% for the first, 6.04% for the second.

Compared with CCOC(=O)Cn1c(=O)c2c(nc3n2CCCCN3c2ccc(C)cc2)n(C)c1=O, Cc1cc(C)n(-c2ccc(C(=O)Nc3cccc(S(=O)(=O)N4CCCC4)c3)cc2)n1.Cl is higher in “hERG current change (%, negative = inhibition) at 1uM” value: 1.3% for the first, 18.8% for the second.

Going from O=C(Nc1cccc2c1C(=O)NC2=O)c1ccc(S(=O)(=O)N2CCCC2)cc1 to COc1ccc(CSc2ccc(S(=O)(=O)N3CCCCC3)cn2)cc1F, the “hERG current change (%, negative = inhibition) at 1uM” value falls from 8.89% to 5.51%.

Compared with OC(CNc1nc(-c2cccnc2)nc2ccccc12)c1ccccc1 (stereo not shown), COc1ccc(CCNC(=O)C23CN(Cc4ccccc4)CC2C(c2cccc([N+](=O)[O-])c2)=NO3)cc1 (stereo not shown) is higher in “hERG current change (%, negative = inhibition) at 1uM” value: 2.49% for the first, 9.54% for the second.

Compared with CCCOC(=O)CSc1nnc(-c2cc(OC)c(OC)c(OC)c2)o1, COc1cc2ncnc(NCc3cccc(Cl)c3)c2cc1OC is lower in “hERG current change (%, negative = inhibition) at 1uM” value: 4.15% for the first, 3.07% for the second.

Going from C=C(C)CN(CC)C(=O)CSc1nc2ncc(Cl)cc2[nH]1 to CCOC(=O)c1[nH]c2ccc(OC)cc2c1NC(=O)CN1CCSCC1, the “hERG current change (%, negative = inhibition) at 1uM” value falls from 12% to 3.88%.

Going from Cc1c(C(=O)Nc2ccc(OC(F)(F)F)cc2)sc2nc3n(c(=O)c12)CCC3 to Cc1cc(C(=O)Cn2nc(C(=O)O)c3ccccc3c2=O)c(C)n1-c1ccc(OC(F)F)cc1, the “hERG current change (%, negative = inhibition) at 1uM” value rises from 5.34% to 9.19%.

Going from Cc1ccc(/C=N/NC(=O)c2cc(-c3ccc(C)o3)[nH]n2)cc1 to COc1ccc(/C=N/NC(=O)c2cccc([N+](=O)[O-])c2)cc1OC(=O)c1ccc(C)cc1, the “hERG current change (%, negative = inhibition) at 1uM” value falls from 10.9% to 10.3%.

First: CN(C)CCCNc1nc(-c2ccccc2)c2c(c1C#N)CC(C)(C)OC2
Second: Cc1nn(-c2ccccc2)c2sc(C(=O)NCCN3CCOCC3)cc12
The “hERG current change (%, negative = inhibition) at 1uM” value of the first is lower: -11.3% for the first, 3.27% for the second.

Going from CCOc1ccc(/C(O)=C2/C(=O)C(=O)N(c3ccccn3)C2c2ccc(Cl)cc2)c(C)c1 (stereo not shown) to Cc1ccc(/C(O)=C2\C(=O)C(=O)N(c3cc(C)on3)C2c2cccc(Cl)c2)cc1 (stereo not shown), the “hERG current change (%, negative = inhibition) at 1uM” value rises from 13.6% to 21.3%.

Compared with CC(C)CN1C(=O)c2ccc(NC(=O)c3ccco3)cc2C1=O, Cc1cc(=O)oc2cc(OCCCN3C(=O)c4ccccc4C3=O)ccc12 is lower in “hERG current change (%, negative = inhibition) at 1uM” value: 7.71% for the first, -0.574% for the second.

Compared with COC(=O)NCCOc1nc(N(C)C)nc(N(C)C)n1, CSCCC(NC(=O)c1cc(CC(C)C)oc1C)C(=O)O (stereo not shown) is lower in “hERG current change (%, negative = inhibition) at 1uM” value: 18.4% for the first, 8.21% for the second.

First: COc1cccc(CN(C)C(=O)c2cc(S(=O)(=O)N3CCN(c4ccccc4)CC3)ccc2Cl)c1
Second: CCOc1ccc(S(=O)(=O)N2CCC(C(=O)NCc3ccncc3)CC2)cc1C
The “hERG current change (%, negative = inhibition) at 1uM” value of the first is lower: -3.75% for the first, 11.3% for the second.

First: CC(=O)N1CCCN(C(=O)c2ccc3nc(Cc4cccc(Cl)c4)oc3c2)CC1
Second: CC1CCN(C(=O)CNC(=O)c2ccc(Cl)cc2Cl)CC1
The “hERG current change (%, negative = inhibition) at 1uM” value of the first is higher: 17.7% for the first, -7.68% for the second.

Compared with CC(=O)/C(=C/c1ccccc1)C(=O)Nc1ccccc1C, Cn1ncc(N=Cc2ccc([N+](=O)[O-])cc2)c1C(=O)Nc1ccccc1 is higher in “hERG current change (%, negative = inhibition) at 1uM” value: 12.4% for the first, 20.8% for the second.

Compared with COc1cc(OC)cc(C2C(C#N)=C(N)Oc3n[nH]c(-c4cccnc4)c32)c1 (stereo not shown), CC(C)=CCOc1c2occc2cc2ccc(=O)oc12 is lower in “hERG current change (%, negative = inhibition) at 1uM” value: 13.1% for the first, -1.76% for the second.

Going from CCOc1ccc(N2C(=O)Nc3ccccc3C2(O)C(=O)NCc2ccc(F)cc2)cc1 (stereo not shown) to O=C(N/N=C/c1ccccc1O)c1cccc(C(F)(F)F)c1, the “hERG current change (%, negative = inhibition) at 1uM” value falls from 7.42% to -0.455%.

First: Cc1[nH]c2ccccc2c1C(=O)CN1CC(C)CC(C)C1 (stereo not shown)
Second: CCCCCCCCC(=O)NCCOc1ccccc1
The “hERG current change (%, negative = inhibition) at 1uM” value of the first is higher: 5.19% for the first, 0.192% for the second.

Compared with CCOC(=O)C(O)(C1C(=O)CC(C)(C)CC1=O)C(F)(F)F (stereo not shown), CNc1cc(N2CCN(S(=O)(=O)N(C)C)CC2)ccc1[N+](=O)[O-] is lower in “hERG current change (%, negative = inhibition) at 1uM” value: 14.7% for the first, 0.411% for the second.

For Cc1nc(N2CCCCC2)c(C#N)c(C)c1[N+](=O)[O-], the “hERG current change (%, negative = inhibition) at 1uM” value was 22.3%.
